This is an account of results in the supplement of paper PMC5998384.

Data set [1] concerns HeLa Kyoto. Nature of the data set: solubility change mitosis vs G1/S (difference of NP-40 vs SDS log2 ratios) (log2 ratio difference); higher = more soluble in mitosis.
In data set [2] the test system is HeLa Kyoto. The data set is described as follows: solubility in G1/S (NP-40 vs SDS abundance) (log2 ratio); higher = more soluble. As to conditions: cell cycle stage: G1/S.
Data set [3] has as its system HeLa Kyoto. The data set is described as follows: thermal stability score vs G1/S (z-score of summed log2 fold changes over temperatures); higher = more thermally stable than in G1/S.
The subject of data set [4] is HeLa Kyoto. The data set is described as follows: melting temperature (median over replicates), in situ; higher = more thermally stable.
The mark [5] stands for this setting: cell cycle stage: early G1 (4.5 h after nocodazole release).
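Wherever melting temperature (median over replicates), in situ is given: HeLa Kyoto cells synchronized by double thymidine or nocodazole block, proteins quantified by TMT10plex mass spectrometry, three independent biological replicates.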
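Wherever solubility change mitosis vs G1/S (difference of NP-40 vs SDS log2 ratios) is given: synchronized HeLa Kyoto cells (double thymidine block for G1/S, nocodazole release for mitosis), protein amounts in NP-40 versus SDS lysates quantified by mass spectrometry, three biological replicates.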
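Wherever solubility in G1/S (NP-40 vs SDS abundance) is given: HeLa Kyoto cells arrested at G1/S by double thymidine block, proteins quantified by TMT10plex mass spectrometry in mild NP-40 versus SDS extracts, three biological replicates.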
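Wherever thermal stability score vs G1/S (z-score of summed log2 fold changes over temperatures) is given: synchronized HeLa Kyoto cells, proteins quantified by TMT10plex mass spectrometry, three biological replicates, mitosis taken 0.5 h after nocodazole release, G1/S directly after double thymidine block.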

Take NDUFS3 (sequence left out): in the data set on HeLa Kyoto [1], the “solubility change mitosis (log2)” value was -0.0807. For the same substance, the “solubility in G1/S (log2)” value in the data set on HeLa Kyoto [2] is 0.256. Also, the thermal stability score in the data set with HeLa Kyoto [3] (setting [5]) was 0.7; in the data set with HeLa Kyoto [3] (cell cycle stage: mitosis), -0.138. Further, the values for the melting temperature in the data set on HeLa Kyoto [4] (cell cycle stage: G1/S) and in the data set with HeLa Kyoto [4] (cell cycle stage: mitosis) were 51.9 °C and 51.7 °C, respectively.
As to NFS1 (sequence left out), the “solubility change mitosis (log2)” value with HeLa Kyoto [1] is -0.0733. Besides, the “solubility in G1/S (log2)” value with HeLa Kyoto [2] came to 0.0847. The results for the thermal stability score in the data set on HeLa Kyoto [3] (setting [5]) and in the data set with HeLa Kyoto [3] (cell cycle stage: mitosis) were 0.362 and 0.272, respectively. The melting temperature in the data set on HeLa Kyoto [4] (cell cycle stage: G1/S) is 53.6 °C; with HeLa Kyoto [4] (cell cycle stage: mitosis), 53.5 °C.
Regarding OPTN (sequence left out), the “solubility change mitosis (log2)” value in the data set on HeLa Kyoto [1] was -0.0251. Further, in the data set on HeLa Kyoto [2], the “solubility in G1/S (log2)” value was 0.435. Also, the thermal stability score was -0.013 with HeLa Kyoto [3] (setting [5]) and 0.588 in the data set on HeLa Kyoto [3] (cell cycle stage: mitosis). The melting temperature in the data set on HeLa Kyoto [4] (cell cycle stage: G1/S) and in the data set with HeLa Kyoto [4] (cell cycle stage: mitosis) was 49.5 °C in each case.
For the substance PSMB4 (sequence left out), the “solubility change mitosis (log2)” value in the data set with HeLa Kyoto [1] was -0.139. In the data set with HeLa Kyoto [2], the “solubility in G1/S (log2)” value was found to be 0.221. For the same substance, the thermal stability score in the data set with HeLa Kyoto [3] (setting [5]) is -2.25; in the data set with HeLa Kyoto [3] (cell cycle stage: mitosis) it was -3.7. For the same substance, the melting temperature with HeLa Kyoto [4] (cell cycle stage: G1/S) was 63.5 °C; in the data set with HeLa Kyoto [4] (cell cycle stage: mitosis) it was 60.9 °C.
Take PSMC3 (sequence left out): the “solubility change mitosis (log2)” value in the data set with HeLa Kyoto [1] was -0.0533. For the same substance, the “solubility in G1/S (log2)” value in the data set on HeLa Kyoto [2] was determined as 0.473. The thermal stability score with HeLa Kyoto [3] (setting [5]) is 1.39; in the data set on HeLa Kyoto [3] (cell cycle stage: mitosis), 0.471. Besides, the figures for the melting temperature in the data set with HeLa Kyoto [4] (cell cycle stage: G1/S) and in the data set on HeLa Kyoto [4] (cell cycle stage: mitosis) were 52.9 °C and 53 °C, respectively.
On to PSMD11 (sequence left out), for which the “solubility change mitosis (log2)” value in the data set on HeLa Kyoto [1] is -0.0883. Further, in the data set with HeLa Kyoto [2], the “solubility in G1/S (log2)” value turned out to be 0.28. Moreover, the figures for the thermal stability score with HeLa Kyoto [3] (setting [5]) and in the data set with HeLa Kyoto [3] (cell cycle stage: mitosis) were 2.13 and 2.02, respectively. For the same substance, the results for the melting temperature in the data set on HeLa Kyoto [4] (cell cycle stage: G1/S) and in the data set with HeLa Kyoto [4] (cell cycle stage: mitosis) were 51.8 °C and 51.9 °C, respectively.
Take PTPRF (sequence left out): the “solubility change mitosis (log2)” value in the data set with HeLa Kyoto [1] is -0.117. Besides, in the data set with HeLa Kyoto [2], the “solubility in G1/S (log2)” value is 0.0295. Further, the thermal stability score in the data set with HeLa Kyoto [3] (setting [5]) is -3.16; with HeLa Kyoto [3] (cell cycle stage: mitosis), -3.72. The melting temperature in the data set on HeLa Kyoto [4] (cell cycle stage: G1/S) amounted to 50.5 °C; with HeLa Kyoto [4] (cell cycle stage: mitosis) it was 49.6 °C.
ROR2 (sequence left out): the “solubility change mitosis (log2)” value in the data set on HeLa Kyoto [1] was -0.0835. The “solubility in G1/S (log2)” value with HeLa Kyoto [2] was -0.0802. For the same substance, the thermal stability score was -0.94 with HeLa Kyoto [3] (setting [5]) and -1.07 in the data set with HeLa Kyoto [3] (cell cycle stage: mitosis). Further, the melting temperature in the data set on HeLa Kyoto [4] (cell cycle stage: G1/S) was found to be 51.1 °C; in the data set on HeLa Kyoto [4] (cell cycle stage: mitosis), 50.9 °C.
As for TIMP2 (sequence left out), in the data set with HeLa Kyoto [1], the “solubility change mitosis (log2)” value is -0.00508. Besides, in the data set with HeLa Kyoto [2], the “solubility in G1/S (log2)” value worked out at 0.27. Moreover, the thermal stability score in the data set on HeLa Kyoto [3] (setting [5]) stood at 2.67; in the data set with HeLa Kyoto [3] (cell cycle stage: mitosis), 2.02. For the same substance, the values for the melting temperature in the data set on HeLa Kyoto [4] (cell cycle stage: G1/S) and with HeLa Kyoto [4] (cell cycle stage: mitosis) were 55.1 °C and 55.9 °C, respectively.
